Results: patent publication US20260083855A1 (Hoffmann-La Roche, published 2026)

T1: IL-2R on human cells (activated CD4 T cells, PBMC subsets, NK92) (human, UniProt P14784 27-551; P31785 23-369)
T1 sequence (looked up) 1: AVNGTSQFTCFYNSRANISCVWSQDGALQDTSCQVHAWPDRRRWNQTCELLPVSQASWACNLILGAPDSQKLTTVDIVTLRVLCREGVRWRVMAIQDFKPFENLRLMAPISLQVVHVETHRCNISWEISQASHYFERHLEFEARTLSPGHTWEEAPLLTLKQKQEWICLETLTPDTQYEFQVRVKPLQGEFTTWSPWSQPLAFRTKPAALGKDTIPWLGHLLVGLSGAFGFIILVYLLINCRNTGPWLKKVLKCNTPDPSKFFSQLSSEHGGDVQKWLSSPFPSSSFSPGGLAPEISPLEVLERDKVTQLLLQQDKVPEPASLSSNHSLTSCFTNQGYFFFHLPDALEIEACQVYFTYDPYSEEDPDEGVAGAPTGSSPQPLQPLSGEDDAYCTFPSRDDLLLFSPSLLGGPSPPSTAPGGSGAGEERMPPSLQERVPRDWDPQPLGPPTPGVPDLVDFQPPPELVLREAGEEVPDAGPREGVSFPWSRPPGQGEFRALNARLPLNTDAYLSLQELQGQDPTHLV
T1 sequence (looked up) 2: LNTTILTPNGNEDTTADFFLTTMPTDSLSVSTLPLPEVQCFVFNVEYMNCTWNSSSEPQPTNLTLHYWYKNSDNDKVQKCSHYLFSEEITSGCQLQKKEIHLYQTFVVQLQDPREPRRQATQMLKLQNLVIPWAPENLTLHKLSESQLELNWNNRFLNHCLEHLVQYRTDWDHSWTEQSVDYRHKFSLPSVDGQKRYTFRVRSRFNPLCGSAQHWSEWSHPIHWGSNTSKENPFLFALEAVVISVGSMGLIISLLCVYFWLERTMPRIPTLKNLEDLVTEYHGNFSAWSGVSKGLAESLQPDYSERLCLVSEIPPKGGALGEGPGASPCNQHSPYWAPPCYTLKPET


Experiments:
Experiment in all cases: cell-based or functional assay
[1] = biological target: T2, human PD-1 on activated CD4 T cells (human, UniProt Q15116 25-288)
[2] = biological target: T1, IL-2R on human cells (activated CD4 T …)
[3] = biological target: T1, IL-2R on human cells (activated CD4 T …); remark: listed apart in the source
[4] = biological target: T1, IL-2R on human cells (activated CD4 T …); remark: listed apart in the source
[5] = biological target: T2, human PD-1 on activated CD4 T cells; set-up: AUC of STAT5-P on PD1+ T cells / AUC of STAT5-P on PD1-blocked T cells: unit not given beside the values
T2 sequence (Q15116 25-288 limits assumed): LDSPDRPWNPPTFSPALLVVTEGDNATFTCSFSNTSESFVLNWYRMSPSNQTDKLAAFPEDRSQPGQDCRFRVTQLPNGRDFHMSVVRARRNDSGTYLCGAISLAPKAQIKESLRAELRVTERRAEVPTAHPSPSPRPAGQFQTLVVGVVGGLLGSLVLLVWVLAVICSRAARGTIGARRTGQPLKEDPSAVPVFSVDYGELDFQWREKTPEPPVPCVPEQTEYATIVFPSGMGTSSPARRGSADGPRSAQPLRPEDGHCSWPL

[6] = biological target: T1, IL-2R on human cells (activated CD4 T …); set-up: AUC of STAT5-P on PD1+ T cells / AUC of STAT5-P on PD1-blocked T cells: unit not given beside the values

Row | Cis-delivery: fold increase in EC50, EC50 [PD1/LAG-3 bl.]/EC50 [PD1+/LAG-3+] [1] | Potency reduction vs PD1-IL2v on PD-1+ LAG-3+ T cells [2] | Percentage of internalization (0.6 nM, activated CD4 T cells, 3 h at 37 C) [3] | Potency reduction versus PD1-IL2v (MFI) [4] | Potency reduction versus PD1-IL2v (frequency) [4] | Cis-delivery: fold increase in EC50, EC50 [with PD1bl]/EC50 [PD1+] [5] | AUC of STAT5-P on PD1+ T cells [6] | AUC of STAT5-P on PD1-blocked T cells [6] | Potency reduction vs PD1-IL2v [6] | Binder
1 | 158 fold | 1 fold | 71.1% | 1 fold | 1 fold | 18.9 fold | 221 | 124 | 1 fold | huPD1-IL2v (w/ huPD1-Lead 0376) (P1AD5438) (other) light: DIVMTQSPDSLAVSLGERATINCKASESVDTSDNSFIHWYQQKPGQSPKLLIYRSSTLESGVPDRFSGSGSGTDFTLTISSLQAEDVAVYYCQQNYDVPWTFGQGTKVEIKRTVAAPSVFIFPPSDEQLKSGTASVVCLLNNFYPREAKVQWKVDNALQSGNSQESVTEQDSKDSTYSLSSTLTLSKADYEKHKVYACEVTHQGLSSPVTKSFNRGEC heavy 1: EVQLLESGGGLVQPGGSLRLSCAASGFSFSSYTMSWVRQAPGKGLEWVATISGGGRDIYYPDSVKGRFTISRDNSKNTLYLQMNSLRAEDTAVYYCVLLTGRVYFALDSWGQGTLVTVSSASTKGPSVFPLAPSSKSTSGGTAALGCLVKDYFPEPVTVSWNSGALTSGVHTFPAVLQSSGLYSLSSVVTVPSSSLGTQTYICNVNHKPSNTKVDKKVEPKSCDKTHTCPPCPAPEAAGGPSVFLFPPKPKDTLMISRTPEVTCVVVDVSHEDPEVKFNWYVDGVEVHNAKTKPREEQYNSTYRVVSVLTVLHQDWLNGKEYKCKVSNKALGAPIEKTISKAKGQPREPQVCTLPPSRDELTKNQVSLSCAVKGFYPSDIAVEWESNGQPENNYKTTPPVLDSDGSFFLVSKLTVDKSRWQQGNVFSCSVMHEALHNRFTQKSLSLSPGK heavy 2: EVQLLESGGGLVQPGGSLRLSCAASGFSFSSYTMSWVRQAPGKGLEWVATISGGGRDIYYPDSVKGRFTISRDNSKNTLYLQMNSLRAEDTAVYYCVLLTGRVYFALDSWGQGTLVTVSSASTKGPSVFPLAPSSKSTSGGTAALGCLVKDYFPEPVTVSWNSGALTSGVHTFPAVLQSSGLYSLSSVVTVPSSSLGTQTYICNVNHKPSNTKVDKKV[human IgG1 Fc with changes not written out]GGGGSGGGGSGGGGSAPASSSTKKTQLQLEHLLLDLQMILNGINNYKNPKLTRMLTAKFAMPKKATELKHLQCLEEELKPLEEVLNGAQSKNFHLRPRDLISNINVIVLELKGSETTFMCEYADETATIVEFLNRWITFAQSIISTLT
2 | 305 fold | 10 fold |  | 1.39 fold | 1.5 fold | 56.5 fold | 188 | 71.2 | 1.57 fold | PD1 376 IgG-huIL2v Q126T (P1AF2142) (other) light: DIVMTQSPDSLAVSLGERATINCKASESVDTSDNSFIHWYQQKPGQSPKLLIYRSSTLESGVPDRFSGSGSGTDFTLTISSLQAEDVAVYYCQQNYDVPWTFGQGTKVEIKRTVAAPSVFIFPPSDEQLKSGTASVVCLLNNFYPREAKVQWKVDNALQSGNSQESVTEQDSKDSTYSLSSTLTLSKADYEKHKVYACEVTHQGLSSPVTKSFNRGEC heavy 1: EVQLLESGGGLVQPGGSLRLSCAASGFSFSSYTMSWVRQAPGKGLEWVATISGGGRDIYYPDSVKGRFTISRDNSKNTLYLQMNSLRAEDTAVYYCVLLTGRVYFALDSWGQGTLVTVSSASTKGPSVFPLAPSSKSTSGGTAALGCLVKDYFPEPVTVSWNSGALTSGVHTFPAVLQSSGLYSLSSVVTVPSSSLGTQTYICNVNHKPSNTKVDKKVEPKSCDKTHTCPPCPAPEAAGGPSVFLFPPKPKDTLMISRTPEVTCVVVDVSHEDPEVKFNWYVDGVEVHNAKTKPREEQYNSTYRVVSVLTVLHQDWLNGKEYKCKVSNKALGAPIEKTISKAKGQPREPQVCTLPPSRDELTKNQVSLSCAVKGFYPSDIAVEWESNGQPENNYKTTPPVLDSDGSFFLVSKLTVDKSRWQQGNVFSCSVMHEALHNHYTQKSLSLSPGK heavy 2: EVQLLESGGGLVQPGGSLRLSCAASGFSFSSYTMSWVRQAPGKGLEWVATISGGGRDIYYPDSVKGRFTISRDNSKNTLYLQMNSLRAEDTAVYYCVLLTGRVYFALDSWGQGTLVTVSSASTKGPSVFPLAPSSKSTSGGTAALGCLVKDYFPEPVTVSWNSGALTSGVHTFPAVLQSSGLYSLSSVVTVPSSSLGTQTYICNVNHKPSNTKVDKKV[human IgG1 Fc with changes not written out]GGGGSGGGGSGGGGSAPASSSTKKTQLQLEHLLLDLQMILNGINNYKNPKLTRMLTAKFAMPKKATELKHLQCLEEELKPLEEVLNGAQSKNFHLRPRDLISNINVIVLELKGSETTFMCEYADETATIVEFLNRWITFATSIISTLT
3 |  |  |  | 62.4 fold | 134 fold |  |  |  |  | NKG2D-IL2v Q126T alias NKG2D 80 IgG-huIL2v Q126T (P1AF2141) (other) light: DIQMTQSPSSLSASVGDRVTITCRASQDISGALNWYQQKPGKAPNLLIYAASSLQSGVPSRFSGSGSGTDYTLTISSLQPEDFATYYCQQANSFPLTFGGGTKVEIKRTVAAPSVFIFPPSDEQLKSGTASVVCLLNNFYPREAKVQWKVDNALQSGNSQESVTEQDSKDSTYSLSSTLTLSKADYEKHKVYACEVTHQGLSSPVTKSFNRGEC heavy 1: QEQLVQSGAEVKKPGESLKISCKGSGFDFNTFWMTWVRQMPGKGLEWMGSIHGGSGSRDYSPSFQGQVTISADIDQSTAYLQWSSLKASDTAMYYCARPGYRSWSKTFDLWGQGTTVTVSSASTKGPSVFPLAPSSKSTSGGTAALGCLVKDYFPEPVTVSWNSGALTSGVHTFPAVLQSSGLYSLSSVVTVPSSSLGTQTYICNVNHKPSNTKVDKKVEPKSCDKTHTCPPCPAPEAAGGPSVFLFPPKPKDTLMISRTPEVTCVVVDVSHEDPEVKFNWYVDGVEVHNAKTKPREEQYNSTYRVVSVLTVLHQDWLNGKEYKCKVSNKALGAPIEKTISKAKGQPREPQVCTLPPSRDELTKNQVSLSCAVKGFYPSDIAVEWESNGQPENNYKTTPPVLDSDGSFFLVSKLTVDKSRWQQGNVFSCSVMHEALHNHYTQKSLSLSPGK heavy 2: QEQLVQSGAEVKKPGESLKISCKGSGFDFNTFWMTWVRQMPGKGLEWMGSIHGGSGSRDYSPSFQGQVTISADIDQSTAYLQWSSLKASDTAMYYCARPGYRSWSKTFDLWGQGTTVTVSSASTKGPSVFPLAPSSKSTSGGTAALGCLVKDYFPEPVTVSWNSGALTSGVHTFPAVLQSSGLYSLSSVVTVPSSSLGTQTYICNVNHKPSNTKVDKKV[human IgG1 Fc with changes not written out]GGGGSGGGGSGGGGSAPASSSTKKTQLQLEHLLLDLQMILNGINNYKNPKLTRMLTAKFAMPKKATELKHLQCLEEELKPLEEVLNGAQSKNFHLRPRDLISNINVIVLELKGSETTFMCEYADETATIVEFLNRWITFATSIISTLT
